Whole data set: some 33,000 sequences, median “E-score (-0.5 to 0.5)” near -0.021, cut for the highest 2% near 0.32. Some of the results follow.
The sequences below were run against T1, Zap1 (UniProt P47043) (assay: PBM E-score (8-mer binding enrichment) (E-score (-0.5 to 0.5)); higher = stronger / more preferred TF binding; most listed sequences are background and not binding sites). Settings: protein concentration: 200 nM; construct: GST-full length.
T1 sequence: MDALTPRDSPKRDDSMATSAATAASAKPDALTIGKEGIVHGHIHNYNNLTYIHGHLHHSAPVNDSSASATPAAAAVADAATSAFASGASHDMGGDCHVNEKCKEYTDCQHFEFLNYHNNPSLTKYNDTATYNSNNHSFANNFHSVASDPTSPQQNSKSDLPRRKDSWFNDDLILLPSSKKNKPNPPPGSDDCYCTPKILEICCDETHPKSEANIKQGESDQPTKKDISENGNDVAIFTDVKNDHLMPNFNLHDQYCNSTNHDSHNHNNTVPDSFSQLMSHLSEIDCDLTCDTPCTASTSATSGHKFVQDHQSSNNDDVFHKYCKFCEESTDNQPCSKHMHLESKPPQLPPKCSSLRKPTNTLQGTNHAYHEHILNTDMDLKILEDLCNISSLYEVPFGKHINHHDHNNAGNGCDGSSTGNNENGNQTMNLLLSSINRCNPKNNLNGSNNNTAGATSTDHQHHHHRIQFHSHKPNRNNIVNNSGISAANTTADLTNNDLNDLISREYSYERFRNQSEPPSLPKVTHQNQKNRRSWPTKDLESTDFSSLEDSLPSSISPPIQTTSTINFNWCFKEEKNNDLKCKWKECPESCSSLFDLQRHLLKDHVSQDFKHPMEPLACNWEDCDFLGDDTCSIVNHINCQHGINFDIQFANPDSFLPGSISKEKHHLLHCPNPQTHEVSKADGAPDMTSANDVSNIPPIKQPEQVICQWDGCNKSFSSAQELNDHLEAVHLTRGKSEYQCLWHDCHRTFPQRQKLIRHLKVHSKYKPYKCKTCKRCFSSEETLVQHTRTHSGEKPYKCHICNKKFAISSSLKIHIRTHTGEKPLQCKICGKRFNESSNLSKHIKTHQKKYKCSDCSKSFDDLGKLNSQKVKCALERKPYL
Procedure, shortened: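 Masliner-normalised scans of fluorescent anti-GST signal were the basis for scoring. That signal came from GST-tagged yeast transcription factors applied at about 100-200 nM to double-stranded universal all-10-mer Agilent arrays on fresh or once-stripped slides. Each ungapped eight-base word, pooled with its reverse complement, received an E-score from the Universal PBM Analysis Suite.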

| Sequence | PBM E-score |
| --- | --- |
| ATATACGG | -0.0743 |
| CCTCAGGA | -0.104 |
| ACTGGGTG | 0.0162 |
| AAAACCCA | 0.258 |
| GCTCGCAA | 0.0398 |
| ACTCTTTC | -0.066 |
| ATCTAGAA | 0.105 |
| CCTTCTGA | 0.0258 |
| CAGGCCTG | -0.125 |
| CGCAGGGA | -0.102 |
| ACTCGATG | 0.0275 |
| AGTGTAGA | -0.103 |
| TACCCCTA | 0.366 |
| ATATCAAA | 0.12 |
| TAGATCTA | 0.0161 |
| AGCCGTTC | -0.31 |
| GGTCGGAC | -0.0817 |
| CGCAAGCG | -0.256 |
| CTGCATTC | -0.0625 |
| CAACACAC | -0.0928 |
| AAGTCGTC | -0.287 |
| GACAGAGC | -0.235 |
| GCTACCCA | 0.204 |
| AACTGGGA | -0.146 |
| AGAGGGTC | 0.213 |

| Sequence | PBM E-score |
| --- | --- |
| AAAAAGGG | 0.243 |
| AGGGAAAA | -0.133 |
| ACTTACCG | 0.0716 |
| GGAGGCAC | -0.0954 |
| CACCTGTA | -0.0421 |
| ATACAAAG | 0.181 |
| ACACAACG | 0.00992 |
| ACTAGACC | 0.137 |
| AACTCGCC | -0.0341 |
| AATCATTC | 0.0432 |
| ATCGGTGC | -0.124 |
| GCACACGA | 0.122 |
| CGAGGGCA | -0.165 |
| ATCGCTAA | 0.134 |
| GAATAGAA | 0.133 |
| AGACCGAA | 0.0806 |
| CTGCTAAG | -0.177 |
| ACGCATGG | -0.0943 |
| GATATCGC | 0.209 |
| ACGTACGG | -0.058 |
| GTGGGTCA | 0.211 |
| AAGGCAGT | -0.162 |
| AAGGCATA | -0.205 |
| AAGCCGTA | -0.0372 |
| GTCTCCTA | -0.241 |

| Sequence | PBM E-score |
| --- | --- |
| TGCTAGAA | -0.0712 |
| CTGAGGCC | -0.182 |
| ACAAAGAA | 0.178 |
| GAATAAGC | -0.182 |
| GATAATGC | 0.0945 |
| GATCGGAA | -0.183 |
| ATTAACTG | 0.197 |
| CGTGACGC | -0.134 |
| CAAACCCC | 0.0296 |
| AATCAGCT | 0.0895 |
| AACAGCGT | -0.216 |
| CGAATAAA | 0.0809 |
| CGAGGCAA | 0.121 |
| TCACTCGA | -0.122 |
| AGGCACAG | -0.0255 |
| ATCGGTAA | 0.0416 |
| AGCCTTGA | 0.0355 |
| AGTTGCTA | 0.128 |
| CAGACACA | 0.0649 |
| CTAGGGTC | 0.309 |
| CACGGGCG | -0.119 |
| GCTGGCCA | 0.049 |
| CCTACTTA | 0.0226 |
| ACAGACAA | 0.227 |
| AAGTCTCT | -0.222 |

| Sequence | PBM E-score |
| --- | --- |
| AGACGGGC | -0.112 |
| ATCTACAG | 0.0926 |
| GAGCTCAC | -0.231 |
| CAATGTGA | -0.0805 |
| ACGGATTC | -0.116 |
| TATGCGGA | 0.00182 |
| CGCACGCA | -0.215 |
| GTATTTCA | 0.206 |
| CAGGGACA | -0.00957 |
| AGCTCGGA | -0.325 |
| CACCCCAC | 0.249 |
| AGTGTTGG | -0.114 |
| CAACTACG | -0.0266 |
| CGAGTACG | -0.241 |
| GAGGCGCC | -0.197 |
| CGTTGTTA | 0.102 |
| TAGGAAGA | -0.0483 |
| AAATATCG | 0.094 |
| CGCTGGGA | -0.234 |
| ACCAAGGT | 0.24 |
| TCTGTAAA | 0.00251 |
| ACCATCCT | -0.113 |
| ATTGAGCC | -0.21 |
| CCTCCTAA | -0.184 |
| CATAAAGG | 0.174 |

| Sequence | PBM E-score |
| --- | --- |
| CAGTTTGC | -0.0408 |
| CAGTCTCC | -0.289 |
| GATAGACC | 0.12 |
| ATAAAAAC | 0.203 |
| CACCAGGC | -0.157 |
| TAAGTAGA | -0.0981 |
| TATAAGGA | 0.192 |
| CACCTAAG | 0.138 |
| CCCTTCAG | 0.122 |
| CACCGATA | 0.137 |
| ATCTCAGA | -0.108 |
| AGTTATGG | 0.198 |
| ATGATGCC | -0.144 |
| ATTCACGC | -0.208 |
| GACTACGA | 0.0134 |
| GATGTACC | 0.133 |
| GAAGCCCA | -0.257 |
| AACCGGGC | -0.143 |
| CCGGTGCA | -0.0328 |
| AGCTGTAA | -0.00885 |
| CCTTTGAG | 0.16 |
| CTCATATC | -0.238 |
| CCGGCAGG | -0.0284 |
| TATGGTCA | 0.296 |
| CCCTGCGA | 0.0758 |

| Sequence | PBM E-score |
| --- | --- |
| CGTCGGCA | -0.215 |
| CGTCGCAA | 0.0459 |
| CGGCGTGA | -0.192 |
| AGGGTGCA | -0.0554 |
| CCTACCAA | 0.11 |
| CTTTCTGA | 0.0969 |
| AACTTGAA | 0.0533 |
| AAATCACC | 0.216 |
| GTCAAAGA | 0.123 |
| GCACAGGA | -0.249 |
| AATCCGCT | -0.151 |
| GGATATAC | -0.0383 |
| ACAGCTCA | -0.137 |
| TACGTAGA | 0.0576 |
| ATAGACAG | -0.0693 |
| CATTCCGC | -0.12 |
| CTCGGTTC | -0.0265 |
| AGAGTGCT | -0.0722 |
| AAGTATTC | -0.105 |
| ATTTGGCC | -0.0727 |
| CAGCTCAA | -0.0501 |
| AACGCCTT | -0.0928 |
| ATCATAAT | 0.0921 |
| CGGCGTTA | 0.0618 |
| CTTACGAC | -0.0242 |

| Sequence | PBM E-score |
| --- | --- |
| CGCATTAG | -0.0717 |
| AAAGTCAG | -0.0834 |
| AAAACAAG | 0.0929 |
| CGTGCGAG | -0.0393 |
| CAGTGTGG | -0.168 |
| AGCACGTA | -0.26 |
| GCCCCTAA | 0.136 |
| CAAACTGC | 0.0385 |
| GATACGCC | -0.192 |
| ACGCGTAC | -0.0321 |
| AATTAACT | 0.0482 |
| AAGCGTAT | -0.227 |
| AAGCGCTA | -0.082 |
| CCTCGCCG | -0.139 |
| CGCGGGCA | 0.125 |
| CAGCCTAC | 0.0391 |
| CTCTACGC | -0.0318 |
| ACGGGCGC | -0.188 |
| GCCCGTTA | 0.0718 |
| CCCCCATA | -0.0168 |
| GCAATACA | 0.164 |
| ATATGCTG | -0.158 |

Source: the supplement of paper PMC3334620
